Test results: the supplement of paper PMC12217912
The list shows a part of the results. Sequences were assembled here from the parent chain. Values near 0.05 are background.

B1: TEV protease; numbered along this chain (parent)
chain: MGESLFKGPRDYNPISSSICHLTNESDGHTTSLYGIGFGPFIITNKHLFRRNNGTLVVQSLHGVFKVKDTTTLQQHLVDGRDMIIIRMPKDFPPFPQKLKFREPQREERICLVTTNFQTKSMSSMVSDTSCTFPSGDGIFWKHWIQTKDGQCGSPLVSTRDGFIVGIHSASNFTNTNNYFTSVPKNFMELLTNQEAQQWVSGWRLNADSVLWGGHKVFMVKPEEPFQPVKEATQL

Variants of: B1
Test: raw area under fraction-flipped curve 0-4 h after induction (AUC4h, not background-subtracted), DNA-recorder readout of cleavage of the substrate (dimensionless); higher = more cleavage of the substrate by the protease variant
Conditions: temperature: 34 °C; time window: 0-4 h after rhamnose induction
Experimental: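 In vivo DNA recorder in E. coli TOP10(DE3) ΔrhaA at 34 °C. Each TEVp single-site mutant (parent TEVp 0) is paired with a single-site variant of the 7-mer TEVs (canonical ENLYFQ|S). The substrate sits between flexible linkers in a Bxb1-sfGFP-TEVs-SsrA fusion, so cleavage stabilises Bxb1 and speeds flipping of a recombination array, read by NGS. The value is the raw area under the fraction-flipped curve over 0-4 h after rhamnose induction (AUC4h), with ≥20 reads per time point. It is not background-subtracted; inactive controls average about 0.047.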
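Further: Bxb1 expression induced with 0.2% (w/v) L-rhamnose at OD600 near 0.5, cultures sampled hourly, flipped fraction per protease–substrate barcode pair counted by paired-end Illumina sequencing.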

| Variant | area with substrate ENLAFQS | area with substrate ENLCFQS | area with substrate ENLDFQS | area with substrate ENLEFQS | area with substrate ENLFFQS | area with substrate ENLHFQS | area with substrate ENLKFQS | area with substrate ENLLFQS | area with substrate ENLNFQS | area with substrate ENLPFQS | area with substrate ENLQFQS | area with substrate ENLRFQS | area with substrate ENLSFQS | area with substrate ENLWFQS | area with substrate ENLGFQS | area with substrate ENLVFQS | area with substrate ENLIFQS | area with substrate ENLTFQS | area with substrate ENLMFQS |
| --- | --- | --- | --- | --- | --- | --- | --- | --- | --- | --- | --- | --- | --- | --- | --- | --- | --- | --- | --- |
| S32D | 0.0697 | 0.0691 | 0.0561 | 0.0576 | 0.106 | 0.0642 | 0.0564 | 0.0492 | 0.0573 | 0.0685 | 0.0668 | 0.0666 | 0.0667 | 0.0689 | – | – | – | – | – |
| V220R | 0.0674 | 0.0608 | 0.0688 | 0.0658 | 0.0774 | 0.0751 | 0.0662 | 0.0735 | 0.0665 | 0.0595 | 0.0828 | – | – | 0.0541 | 0.0759 | 0.081 | – | – | – |
| R106D | 0.0571 | 0.0715 | 0.0605 | 0.0492 | 0.0886 | 0.0536 | 0.0745 | 0.0491 | 0.0574 | 0.0693 | 0.0715 | 0.0795 | 0.0721 | – | 0.0663 | – | 0.0967 | 0.106 | – |
| S16L | 0.0577 | – | 0.0503 | 0.0517 | 0.0731 | 0.066 | 0.086 | 0.069 | – | 0.0574 | 0.0781 | 0.0663 | 0.0569 | 0.0704 | – | – | – | 0.0752 | – |
| K221R | 0.0626 | – | 0.0667 | 0.0576 | 0.077 | 0.0459 | 0.0675 | 0.0836 | – | 0.0628 | 0.0752 | 0.0759 | 0.0616 | 0.0691 | – | 0.0891 | 0.0802 | – | – |
| H168I | 0.0661 | 0.0599 | 0.0601 | 0.0591 | 0.0694 | 0.0599 | 0.0572 | 0.0507 | 0.0507 | 0.0602 | – | 0.0566 | 0.05 | 0.0546 | – | 0.0392 | 0.0653 | 0.0689 | – |
| G8D | 0.0719 | – | – | – | – | 0.0648 | 0.0771 | – | 0.0373 | 0.055 | – | 0.0678 | – | – | – | 0.0777 | – | – | – |
| P104T | 0.0557 | 0.0379 | 0.0519 | – | 0.0485 | – | 0.0506 | 0.0472 | 0.0902 | 0.0629 | 0.0394 | – | – | – | – | – | – | – | – |
| T72A | 0.0725 | – | 0.0331 | 0.0639 | 0.0787 | 0.0564 | – | – | 0.0634 | – | 0.0793 | 0.0579 | – | – | – | – | – | – | – |
| K120G | 0.0794 | – | 0.0648 | – | 0.0666 | 0.0678 | 0.0965 | 0.0611 | 0.0737 | 0.0605 | 0.0646 | 0.0673 | – | 0.0585 | – | – | 0.0754 | – | – |
| I43K | 0.0532 | 0.0548 | 0.052 | – | 0.0492 | 0.0412 | – | 0.0525 | 0.053 | 0.0547 | 0.051 | 0.0452 | – | 0.0592 | – | – | 0.0653 | – | – |
| L56W | 0.0624 | 0.0637 | 0.06 | 0.0689 | 0.0574 | 0.0564 | 0.0593 | 0.0543 | 0.0613 | 0.0474 | 0.0594 | 0.0562 | 0.0643 | 0.0563 | – | – | 0.0601 | – | 0.0697 |
| L48S | 0.0595 | – | 0.0619 | 0.0747 | 0.0718 | 0.0626 | 0.0804 | 0.046 | 0.061 | – | 0.0573 | 0.0566 | 0.0641 | 0.0617 | 0.0898 | 0.069 | – | – | – |
